Assay results published in the supplement of paper PMC4967469.

Experiments:
Assay in all cases: Viability of human cancer cell lines after 72 h of drug (GDSC screen)
[1] = compound: O=S(=O)(O)c1ccc2cc(N=Nc3cc(S(=O)(=O)O)c4cccnc4c3O)ccc2c1 [NSC-87877]; settings: top dose 16 µM; top dose inferred
Method: (§1)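 Human cancer cell lines in 384-well plates, medium with 10% serum, drug for 72 h over a 256-fold dose range (nine 2-fold or five 4-fold steps up to the top dose). Adherent lines were fixed and stained with the nucleic acid dye Syto60, suspension lines read with resazurin; signal relative to control wells, capped at 0 and 100%. One two-parameter sigmoid per drug and line, fitted in a mixed model over all curves with the slope shared within a line.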

[2] = compound: Cc1ccc(NC(=O)c2ccc(CN3CCN(C)CC3)cc2)cc1Nc1nc(-c2cccnc2)cs1 [Masitinib]; settings: top dose 20 µM
Method: as §1

[3] = compound: CCCC(=O)OCc1ccc(OC(=O)/C=C(C)/C=C/C=C(C)/C=C/C2=C(C)CCCC2(C)C)cc1 [VNLG/124]; settings: top dose 5.12 µM; top dose inferred
Method: as §1

[4] = compound: O=C(Nc1cccc(Nc2ncc(Br)c(NCCc3cnc[nH]3)n2)c1)N1CCCC1 [BX-912]; settings: top dose 10.24 µM; top dose inferred
Method: as §1

[5] = compound: Cc1c(N)nc([C@H](CC(N)=O)NC[C@H](N)C(N)=O)nc1C(=O)N[C@H](C(=O)N[C@H](C)[C@@H](O)[C@H](C)C(=O)N[C@H](C(=O)NCCc1nc(-c2nc(C(=O)NCCC[S+](C)C)cs2)cs1)[C@@H](C)O)[C@@H](OC1OC(CO)C(O)C(O)C1OC1OC(CO)C(O)C(OC(N)=O)C1O)c1cnc[nH]1 [Bleomycin]
Method: as §1

[6] = compound: CC/C(=C(\c1ccccc1)c1ccc(OCCN(C)C)cc1)c1ccccc1 [Tamoxifen]; settings: top dose 5 µM
Method: as §1

[7] = compound: O=C(Nc1ccc(OC(F)(F)F)cc1)c1sccc1NCc1ccnc2ccccc12 [OSI-930]; settings: top dose 10.24 µM
Method: as §1

[8] = compound: O=C(/C=C/c1ccc(CN(CCO)CCc2c[nH]c3ccccc23)cc1)NO [LAQ824]; settings: top dose 1.024 µM; top dose inferred
Method: as §1

[9] = compound: COc1cc(N2CCC(C(N)=O)CC2)ccc1Nc1nc(N)c(Cl)c(Nc2ccccc2S(=O)(=O)C(C)C)n1 [HG-5-88-01]; settings: top dose 10 µM; top dose inferred
Method: as §1

[10] = top dose 50 µM, screen: GDSC drug entry 1378, top dose inferred
[11] = top dose 64 µM, screen: GDSC drug entry 190

Row | Cell Line | AUC [1] | IC50 [1] | AUC [2] | IC50 [2] | AUC [3] | IC50 [3] | AUC [4] | IC50 [4] | AUC [5, 10] | IC50 [5, 10] | AUC [5, 11] | IC50 [5, 11] | AUC [6] | IC50 [6] | AUC [7] | IC50 [7] | AUC [8] | IC50 [8] | AUC [9] | IC50 [9]
1 | SCC-15 (head and neck, adherent) | 0.951 | > 16 µM | 0.922 | > 20 µM | 0.975 | > 5.12 µM | 0.886 | > 10.2 µM | 0.484 | 2790 nM | 0.754 | 28600 nM | 0.922 | > 5 µM | 0.959 | > 10.2 µM | 0.592 | 125 nM | 0.848 | > 10 µM
2 | SK-CO-1 (large intestine, adherent) | 0.989 | > 16 µM | 0.973 | > 20 µM | 0.989 | > 5.12 µM | 0.955 | > 10.2 µM | 0.2 | 431 nM | 0.033 | < 250 nM | 0.988 | > 5 µM | 0.989 | > 10.2 µM | 0.582 | 106 nM | 0.774 | 3.68 µM
3 | SK-LU-1 (lung adenocarcinoma, adherent) | 0.977 | > 16 µM | 0.868 | > 20 µM | 0.974 | > 5.12 µM | 0.89 | > 10.2 µM | 0.731 | 17400 nM | 0.359 | 1460 nM | 0.962 | > 5 µM | 0.939 | > 10.2 µM | 0.61 | 139 nM | 0.839 | 9.63 µM
4 | SU-DHL-8 (B-cell lymphoma, suspension) | 0.987 | > 16 µM | 0.862 | 15.3 µM | 0.801 | 2.3 µM | 0.669 | 1.82 µM | 0.969 | > 50000 nM | 0.375 | 1850 nM | 0.981 | > 5 µM | 0.681 | 1.98 µM | 0.269 | 14.9 nM | 0.969 | > 10 µM
5 | SW872 (soft tissue, adherent) | 0.985 | > 16 µM | 0.954 | > 20 µM | 0.989 | > 5.12 µM | 0.982 | > 10.2 µM | 0.383 | 1540 nM | 0.44 | 2790 nM | 0.977 | > 5 µM | 0.974 | > 10.2 µM | 0.525 | 74.1 nM | 0.887 | 9.3 µM
6 | TC-71 (Ewing sarcoma, adherent) | 0.992 | > 16 µM | 0.883 | 15.2 µM | 0.986 | > 5.12 µM | 0.586 | 1.06 µM | 0.696 | 9910 nM | 0.948 | > 64000 nM | 0.973 | > 5 µM | 0.933 | > 10.2 µM | 0.668 | 172 nM | 0.721 | 2.32 µM
7 | TE-10 (oesophagus, adherent) | 0.987 | > 16 µM | 0.93 | > 20 µM | 0.984 | > 5.12 µM | 0.929 | > 10.2 µM | 0.51 | 3320 nM | 0.373 | 1800 nM | 0.96 | > 5 µM | 0.959 | > 10.2 µM | 0.429 | 41.1 nM | 0.934 | > 10 µM

By IC50 is meant the dose at which the fit gives 50% viability; a fit beyond the top or the lowest dose is shown as a bound at that dose. AUC, from the same fit, is the share of area under the viability curve across the 256-fold dose range; it is 1 without any effect and falls as sensitivity rises. For some assays here: An inferred top dose is not printed in the source and was worked back from the curve model. For some assays here: An entry number marks a drug with two screens in the source, which often give different values.
